According to the supplement of paper PMC8728848:
The other results are listed elsewhere or left out.

What was measured:
Assay in all cases: glycan array binding signal (z-score within array); higher = stronger binding
Conditions in all cases: glycan notation: IUPAC condensed, linker removed
Gal3S(b1-4)GlcNAc6S = target: Gal3S(b1-4)GlcNAc6S
Outline: (§1)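 The Consortium for Functional Glycomics database supplied 3228 glycan arrays, of which those lacking an available protein sequence were dropped. The binding signal, a within-array Z-score, was averaged across arrays of the same protein sequence and across linkers. Negative scores can be read as non-binding.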

[1] = target: Gal3S(b1-4)[Fuc(a1-3)]Glc
Outline: as §1

Gal3S4S(b1-4)GlcNAc = target: Gal3S4S(b1-4)GlcNAc
Outline: as §1

Gal3S6S(b1-4)GlcNAc = target: Gal3S6S(b1-4)GlcNAc
Outline: as §1

Gal3S6S(b1-4)GlcNAc6S = target: Gal3S6S(b1-4)GlcNAc6S
Outline: as §1

Gal4S(b1-4)GlcNAc = target: Gal4S(b1-4)GlcNAc
Outline: as §1

Gal4S6S(b1-4)GlcNAc = target: Gal4S6S(b1-4)GlcNAc
Outline: as §1

Gal6S(b1-4)Glc = target: Gal6S(b1-4)Glc
Outline: as §1

Gal6S(b1-4)Glc6S = target: Gal6S(b1-4)Glc6S
Outline: as §1

Gal6S(b1-4)GlcNAc = target: Gal6S(b1-4)GlcNAc
Outline: as §1

Gal6S(b1-4)GlcNAc6S = target: Gal6S(b1-4)GlcNAc6S
Outline: as §1

GalNAc(a1-3)Gal = target: GalNAc(a1-3)Gal
Outline: as §1

GalNAc(a1-3)GalNAc = target: GalNAc(a1-3)GalNAc
Outline: as §1

GalNAc(b1-3)Gal = target: GalNAc(b1-3)Gal
Outline: as §1

[2] = target: GalNAc(b1-3)Gal(a1-4)Gal(b1-4)GlcNAc
Outline: as §1

GalNAc(b1-3)GalNAc = target: GalNAc(b1-3)GalNAc
Outline: as §1

GalNAc(b1-4)GlcNAc = target: GalNAc(b1-4)GlcNAc
Outline: as §1

Glc(a1-4)Glc = target: Glc(a1-4)Glc
Outline: as §1

Glc(a1-6)Glc(a1-6)Glc = target: Glc(a1-6)Glc(a1-6)Glc
Outline: as §1

Glc(b1-4)Glc = target: Glc(b1-4)Glc
Outline: as §1

Glc(b1-6)Glc = target: Glc(b1-6)Glc
Outline: as §1

GlcA(b1-3)Gal = target: GlcA(b1-3)Gal
Outline: as §1

GlcA(b1-3)GlcNAc = target: GlcA(b1-3)GlcNAc
Outline: as §1

GlcA(b1-6)Gal = target: GlcA(b1-6)Gal
Outline: as §1

[3] = target: GlcNAc(a1-3)Gal(b1-4)GlcNAc
Outline: as §1

[4] = target: GlcNAc(a1-6)Gal(b1-4)GlcNAc
Outline: as §1

[5] = target: GlcNAc(b1-2)Gal(b1-3)GalNAc
Outline: as §1

[6] = target: GlcNAc(b1-2)Man(a1-3)[GlcNAc(b1-2)Man(a1-6)]Man(b1-4)GlcNAc(b1-4)GlcNAc
Outline: as §1

GlcNAc(b1-3)Gal = target: GlcNAc(b1-3)Gal
Outline: as §1

[7] = target: GlcNAc(b1-3)Gal(b1-3)GalNAc
Outline: as §1

GlcNAc(b1-3)Gal(b1-4)Glc = target: GlcNAc(b1-3)Gal(b1-4)Glc
Outline: as §1

[8] = target: GlcNAc(b1-3)Gal(b1-4)GlcNAc
Outline: as §1

[9] = target: GlcNAc(b1-3)Gal(b1-4)GlcNAc(b1-3)Gal(b1-4)GlcNAc
Outline: as §1

GlcNAc(b1-3)GalNAc = target: GlcNAc(b1-3)GalNAc
Outline: as §1

GlcNAc(b1-3)Man = target: GlcNAc(b1-3)Man
Outline: as §1

[10] = target: GlcNAc(b1-3)[GlcNAc(b1-4)][GlcNAc(b1-6)]GlcNAc
Outline: as §1

[11] = target: GlcNAc(b1-3)[GlcNAc(b1-6)]Gal(b1-4)GlcNAc
Outline: as §1

[12] = target: GlcNAc(b1-3)[GlcNAc(b1-6)]GalNAc
Outline: as §1

[13] = target: GlcNAc(b1-4)Gal(b1-4)GlcNAc
Outline: as §1

GlcNAc(b1-4)GlcNAc = target: GlcNAc(b1-4)GlcNAc
Outline: as §1

[14] = target: GlcNAc(b1-4)GlcNAc(b1-4)GlcNAc
Outline: as §1

[15] = target: GlcNAc(b1-4)GlcNAc(b1-4)GlcNAc(b1-4)GlcNAc(b1-4)GlcNAc
Outline: as §1

[16] = target: GlcNAc(b1-4)GlcNAc(b1-4)GlcNAc(b1-4)GlcNAc(b1-4)GlcNAc(b1-4)GlcNAc
Outline: as §1

[17] = target: GlcNAc(b1-4)[GlcNAc(b1-6)]GalNAc
Outline: as §1

[18] = target: GlcNAc(b1-6)Gal(b1-4)GlcNAc
Outline: as §1

B1: Factor H (Homo sapiens), P08603 (protein)
chain: MRLLAKIICLMLWAICVAEDCNELPPRRNTEILTGSWSDQTYPEGTQAIYKCRPGYRSLGNVIMVCRKGEWVALNPLRKCQKRPCGHPGDTPFGTFTLTGGNVFEYGVKAVYTCNEGYQLLGEINYRECDTDGWTNDIPICEVVKCLPVTAPENGKIVSSAMEPDREYHFGQAVRFVCNSGYKIEGDEEMHCSDDGFWSKEKPKCVEISCKSPDVINGSPISQKIIYKENERFQYKCNMGYEYSERGDAVCTESGWRPLPSCEEKSCDNPYIPNGDYSPLRIKHRTGDEITYQCRNGFYPATRGNTAKCTSTGWIPAPRCTLKPCDYPDIKHGGLYHENMRRPYFPVAVGKYYSYYCDEHFETPSGSYWDHIHCTQDGWSPAVPCLRKCYFPYLENGYNQNYGRKFVQGKSIDVACHPGYALPKAQTTVTCMENGWSPTPRCIRVKTCSKSSIDIENGFISESQYTYALKEKAKYQCKLGYVTADGETSGSITCGKDGWSAQPTCIKSCDIPVFMNARTKNDFTWFKLNDTLDYECHDGYESNTGSTTGSIVCGYNGWSDLPICYERECELPKIDVHLVPDRKKDQYKVGEVLKFSCKPGFTIVGPNSVQCYHFGLSPDLPICKEQVQSCGPPPELLNGNVKEKTKEEYGHSEVVEYYCNPRFLMKGPNKIQCVDGEWTTLPVCIVEESTCGDIPELEHGWAQLSSPPYYYGDSVEFNCSESFTMIGHRSITCIHGVWTQLPQCVAIDKLKKCKSSNLIILEEHLKNKKEFDHNSNIRYRCRGKEGWIHTVCINGRWDPEVNCSMAQIQLCPPPPQIPNSHNMTTTLNYRDGEKVSVLCQENYLIQEGEEITCKDGRWQSIPLCVEKIPCSQPPQIEHGTINSSRSSQESYAHGTKLSYTCEGGFRISEENETTCYMGKWSSPPQCEGLPCKSPPEISHGVVAHMSDSYQYGEEVTYKCFEGFGIDGPAIAKCLGEKWSHPPSCIKTDCLSLPSFENAIPMGEKKDVYKAGEQVTYTCATYYKMDGASNVTCINSRWTGRPTCRDTSCVNPPTVQNAYIVSRQMSKYPSGERVRYQCRSPYEMFGDEEVMCLNGNWTEPPQCKDSTGKCGPPPPIDNGDITSFPLSVYAPASSVEYQCQNLYQLEGNKRITCRNGQWSEPPKCLHPCVISREIMENYNIALRWTAKQKLYSRTGESVEFVCKRGYRLSSRSHTLRTTCWDGKLEYPTCAKR
Gal3S(b1-4)GlcNAc6S
  glycan array binding signal (z-score): 0.079
[1]
  glycan array binding signal (z-score): -0.131
Gal3S4S(b1-4)GlcNAc
  glycan array binding signal (z-score): -0.168
Gal3S6S(b1-4)GlcNAc
  glycan array binding signal (z-score): -0.417
Gal3S6S(b1-4)GlcNAc6S
  glycan array binding signal (z-score): 11.8
Gal4S(b1-4)GlcNAc
  glycan array binding signal (z-score): -0.153
Gal4S6S(b1-4)GlcNAc
  glycan array binding signal (z-score): -0.543
Gal6S(b1-4)Glc
  glycan array binding signal (z-score): 1.34
Gal6S(b1-4)Glc6S
  glycan array binding signal (z-score): 0.498
Gal6S(b1-4)GlcNAc
  glycan array binding signal (z-score): 0.563
Gal6S(b1-4)GlcNAc6S
  glycan array binding signal (z-score): -0.135
GalNAc(a1-3)Gal
  glycan array binding signal (z-score): -0.188
GalNAc(a1-3)GalNAc
  glycan array binding signal (z-score): -0.2
GalNAc(b1-3)Gal
  glycan array binding signal (z-score): -0.083
[2]
  glycan array binding signal (z-score): 0.024
GalNAc(b1-3)GalNAc
  glycan array binding signal (z-score): 0.345
GalNAc(b1-4)GlcNAc
  glycan array binding signal (z-score): -0.186
Glc(a1-4)Glc
  glycan array binding signal (z-score): -0.343
Glc(a1-6)Glc(a1-6)Glc
  glycan array binding signal (z-score): 0.357
Glc(b1-4)Glc
  glycan array binding signal (z-score): -0.507
Glc(b1-6)Glc
  glycan array binding signal (z-score): 1.55
GlcA(b1-3)Gal
  glycan array binding signal (z-score): -0.108
GlcA(b1-3)GlcNAc
  glycan array binding signal (z-score): -0.298
GlcA(b1-6)Gal
  glycan array binding signal (z-score): -0.147
[3]
  glycan array binding signal (z-score): -0.015
[4]
  glycan array binding signal (z-score): -0.172
[5]
  glycan array binding signal (z-score): 0.157
[6]
  glycan array binding signal (z-score): -0.458
GlcNAc(b1-3)Gal
  glycan array binding signal (z-score): -0.286
[7]
  glycan array binding signal (z-score): -0.157
GlcNAc(b1-3)Gal(b1-4)Glc
  glycan array binding signal (z-score): -0.643
[8]
  glycan array binding signal (z-score): -0.094
[9]
  glycan array binding signal (z-score): -0.383
GlcNAc(b1-3)GalNAc
  glycan array binding signal (z-score): 0.52
GlcNAc(b1-3)Man
  glycan array binding signal (z-score): 2.51
[10]
  glycan array binding signal (z-score): 0.377
[11]
  glycan array binding signal (z-score): -0.549
[12]
  glycan array binding signal (z-score): 1
[13]
  glycan array binding signal (z-score): 0.172
GlcNAc(b1-4)GlcNAc
  glycan array binding signal (z-score): -0.122
[14]
  glycan array binding signal (z-score): -0.479
[15]
  glycan array binding signal (z-score): -0.497
[16]
  glycan array binding signal (z-score): -0.101
[17]
  glycan array binding signal (z-score): 1.2
[18]
  glycan array binding signal (z-score): -0.593
